The densities may have been worked out from excess volumes.
Assay: xn = mol fraction of the nth substance listed
Details: 298.15 K, 100 kPa

| SMILES | mass density (x1 = 1) | mass density (x1 = 0.2008) | mass density (x1 = 0.4356) | mass density (x1 = 0.494) | mass density (x1 = 0.5982) | mass density (x1 = 0.6996) | mass density (x1 = 0.8) | mass density (x1 = 0.9025) | mass density (x2 = 0.1009) | mass density (x2 = 0.2031) | mass density (x2 = 0.2951) | mass density (x2 = 0.4027) | mass density (x2 = 0.5989) | mass density (x2 = 0.8024) | mass density (x2 = 0.8996) |
| --- | --- | --- | --- | --- | --- | --- | --- | --- | --- | --- | --- | --- | --- | --- | --- |
| CC[n+]1ccn(C)c1.O=S(=O)([N-]S(=O)(=O)C(F)(F)F)C(F)(F)F + CCCC[n+]1ccn(C)c1.CCOS(=O)(=O)[O-] | 1518.9 kg/m3 |  |  |  |  |  |  |  |  |  |  |  |  |  |  |
| CC[n+]1ccn(C)c1.O=S(=O)([N-]S(=O)(=O)C(F)(F)F)C(F)(F)F + CCOS(=O)(=O)[O-].CC[n+]1ccn(C)c1 | 1518.9 kg/m3 | 1305.7 kg/m3 | 1376.8 kg/m3 | 1393.3 kg/m3 | 1421.8 kg/m3 | 1448 kg/m3 | 1472.9 kg/m3 | 1496.9 kg/m3 |  |  |  |  |  |  |  |
| CCCC[n+]1ccn(C)c1.CCOS(=O)(=O)[O-] + CC[n+]1ccn(C)c1.O=S(=O)([N-]S(=O)(=O)C(F)(F)F)C(F)(F)F |  |  |  |  |  |  |  |  | 1189.5 kg/m3 | 1227.6 kg/m3 | 1261.6 kg/m3 | 1301.5 kg/m3 | 1373.5 kg/m3 | 1447.5 kg/m3 | 1482.6 kg/m3 |
